This passage reports binding signal results from article PMC9911399, “Two distinct binding modes provide the RNA-binding protein RbFox with extraordinary sequence specificity”.

Changes are numbered by the printed parent chain; changes in the protein carry UniProt numbers. The list shows a part of the results.

Sequences and labels used below:
T1: RBFOX1 RRM (Homo sapiens, UniProt Q9NWB1 109-208)
T1 sequence: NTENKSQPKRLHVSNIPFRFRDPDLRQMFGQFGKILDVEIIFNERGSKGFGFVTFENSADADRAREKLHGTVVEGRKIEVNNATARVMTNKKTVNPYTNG

B1: UCACGAU (DNA:RNA)
RNA: GGGAGACCGGAAUUCAGAUUGUCCUCACGAUUUAAAUCCCGUCGUAGCCACCA
DNA 1: CAATCTGAATTCCGGTCTCCC
DNA 2: TGGTGGCTACGACGGGATT
B2: UCGACCC (DNA:RNA)
RNA: B1 RNA with A27G, C28A, G29C, A30C, U31C
DNA 1: CAATCTGAATTCCGGTCTCCC
DNA 2: TGGTGGCTACGACGGGATT
B3: UCGCGGC (DNA:RNA)
RNA: B1 RNA with A27G, A30G, U31C
DNA 1: CAATCTGAATTCCGGTCTCCC
DNA 2: TGGTGGCTACGACGGGATT
B4: UGGUGAG (DNA:RNA)
RNA: B1 RNA with C26G, A27G, C28U, U31G
DNA 1: CAATCTGAATTCCGGTCTCCC
DNA 2: TGGTGGCTACGACGGGATT
B5: GUGAGGA (DNA:RNA)
RNA: B1 RNA with U25G, C26U, A27G, C28A, A30G, U31A
DNA 1: CAATCTGAATTCCGGTCTCCC
DNA 2: TGGTGGCTACGACGGGATT
B6: GAUCUGG (DNA:RNA)
RNA: B1 RNA with U25G, C26A, A27U, G29U, A30G, U31G
DNA 1: CAATCTGAATTCCGGTCTCCC
DNA 2: TGGTGGCTACGACGGGATT
B7: AGUGGCA (DNA:RNA)
RNA: B1 RNA with U25A, C26G, A27U, C28G, A30C, U31A
DNA 1: CAATCTGAATTCCGGTCTCCC
DNA 2: TGGTGGCTACGACGGGATT
B8: AAGAUGC (DNA:RNA)
RNA: GGGAGACCGGAAUUCAGAUUGUCCAAGAUGCUUAAAUCCCGUCGUAGCCACCA
DNA 1: CAATCTGAATTCCGGTCTCCC
DNA 2: TGGTGGCTACGACGGGATT
B9: GCCCAAA (DNA:RNA)
RNA: B1 RNA with U25G, A27C, G29A, U31A
DNA 1: CAATCTGAATTCCGGTCTCCC
DNA 2: TGGTGGCTACGACGGGATT
B10: AGGAGGG (DNA:RNA)
RNA: B8 RNA with A26G, U29G, C31G
DNA 1: CAATCTGAATTCCGGTCTCCC
DNA 2: TGGTGGCTACGACGGGATT
B11: GAUGAUU (DNA:RNA)
RNA: B8 RNA with A25G, G27U, A28G, U29A, G30U, C31U
DNA 1: CAATCTGAATTCCGGTCTCCC
DNA 2: TGGTGGCTACGACGGGATT
B12: UAGACGU (DNA:RNA)
RNA: B8 RNA with A25U, U29C, C31U
DNA 1: CAATCTGAATTCCGGTCTCCC
DNA 2: TGGTGGCTACGACGGGATT
B13: GUUAAAG (DNA:RNA)
RNA: B8 RNA with A25G, A26U, G27U, U29A, G30A, C31G
DNA 1: CAATCTGAATTCCGGTCTCCC
DNA 2: TGGTGGCTACGACGGGATT
B14: AUCAAUC (DNA:RNA)
RNA: B8 RNA with A26U, G27C, U29A, G30U
DNA 1: CAATCTGAATTCCGGTCTCCC
DNA 2: TGGTGGCTACGACGGGATT
B15: GUCCGAU (DNA:RNA)
RNA: B1 RNA with U25G, C26U, A27C
DNA 1: CAATCTGAATTCCGGTCTCCC
DNA 2: TGGTGGCTACGACGGGATT
B16: GUCGAAU (DNA:RNA)
RNA: B1 RNA with U25G, C26U, A27C, C28G, G29A
DNA 1: CAATCTGAATTCCGGTCTCCC
DNA 2: TGGTGGCTACGACGGGATT
B17: AGAAAGU (DNA:RNA)
RNA: B8 RNA with A26G, G27A, U29A, C31U
DNA 1: CAATCTGAATTCCGGTCTCCC
DNA 2: TGGTGGCTACGACGGGATT
B18: UAUCAAC (DNA:RNA)
RNA: B1 RNA with C26A, A27U, G29A, U31C
DNA 1: CAATCTGAATTCCGGTCTCCC
DNA 2: TGGTGGCTACGACGGGATT
B19: UUAUUGC (DNA:RNA)
RNA: B8 RNA with A25U, A26U, G27A, A28U
DNA 1: CAATCTGAATTCCGGTCTCCC
DNA 2: TGGTGGCTACGACGGGATT
B20: ACACAAU (DNA:RNA)
RNA: B1 RNA with U25A, G29A
DNA 1: CAATCTGAATTCCGGTCTCCC
DNA 2: TGGTGGCTACGACGGGATT
B21: CCAUGUU (DNA:RNA)
RNA: B1 RNA with U25C, C28U, A30U
DNA 1: CAATCTGAATTCCGGTCTCCC
DNA 2: TGGTGGCTACGACGGGATT
B22: CAUGACG (DNA:RNA)
RNA: B8 RNA with A25C, G27U, A28G, U29A, G30C, C31G
DNA 1: CAATCTGAATTCCGGTCTCCC
DNA 2: TGGTGGCTACGACGGGATT
B23: AGAGGCU (DNA:RNA)
RNA: B1 RNA with U25A, C26G, C28G, A30C
DNA 1: CAATCTGAATTCCGGTCTCCC
DNA 2: TGGTGGCTACGACGGGATT
B24: AGUGAGC (DNA:RNA)
RNA: B8 RNA with A26G, G27U, A28G, U29A
DNA 1: CAATCTGAATTCCGGTCTCCC
DNA 2: TGGTGGCTACGACGGGATT
B25: AUCAAGC (DNA:RNA)
RNA: B8 RNA with A26U, G27C, U29A
DNA 1: CAATCTGAATTCCGGTCTCCC
DNA 2: TGGTGGCTACGACGGGATT
B26: UAAUCAU (DNA:RNA)
RNA: B1 RNA with C26A, C28U, G29C
DNA 1: CAATCTGAATTCCGGTCTCCC
DNA 2: TGGTGGCTACGACGGGATT
B27: UUACACC (DNA:RNA)
RNA: B1 RNA with C26U, G29A, A30C, U31C
DNA 1: CAATCTGAATTCCGGTCTCCC
DNA 2: TGGTGGCTACGACGGGATT
B28: GAACAGC (DNA:RNA)
RNA: B8 RNA with A25G, G27A, A28C, U29A
DNA 1: CAATCTGAATTCCGGTCTCCC
DNA 2: TGGTGGCTACGACGGGATT
B29: CGGAUCA (DNA:RNA)
RNA: B8 RNA with A25C, A26G, G30C, C31A
DNA 1: CAATCTGAATTCCGGTCTCCC
DNA 2: TGGTGGCTACGACGGGATT
B30: AAGGCGA (DNA:RNA)
RNA: B8 RNA with A28G, U29C, C31A
DNA 1: CAATCTGAATTCCGGTCTCCC
DNA 2: TGGTGGCTACGACGGGATT
B31: ACGAGUA (DNA:RNA)
RNA: B8 RNA with A26C, U29G, G30U, C31A
DNA 1: CAATCTGAATTCCGGTCTCCC
DNA 2: TGGTGGCTACGACGGGATT

For this assay, the target named is T1, RBFOX1 RRM. As to the kind of experiment: EMSA; HiTS-Eq, 1 nM pool, 10 min; buffer printed only for the single-RNA assays: 10 mM Tris pH 7.5, 150 mM NaCl, 3.4 mM EDTA, 0.001% NP-40, 30 C. As to conditions: tags: His6 N-terminal (pET28a); label: 5' 32P. The gist of the method: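 Purified RbFox RRM, wild type or mutant, was incubated for 10 min in 50 µL with 1 nM of a 5′-radiolabelled RNA pool carrying 7 randomized nucleotides, whose flanks were annealed to DNA oligonucleotides, over a series of increasing protein concentrations. Unbound RNA was resolved on 8% native PAGE, cut out, reverse-transcribed, barcoded by PCR and sequenced on an Illumina HiSeq 2500. Relative association constants were derived from changes in read counts for each RNA species versus the control reaction and normalised to the cognate motif.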
In general terms: A gel shift assay detects complexes by their altered migration in electrophoresis.
In the case of B1, the binding signal was 0.00446 KA relative to UGCAUGU.
The result for B2 reads 0.00775 KA relative to UGCAUGU.
For the molecule B3, the binding signal is 0.0101 KA relative to UGCAUGU.
Consider B4, for which the binding signal is 0.0183 KA relative to UGCAUGU.
The result for B5 reads 0.00402 KA relative to UGCAUGU; that for B6, 0.0222 KA relative to UGCAUGU.
Consider B7, for which the binding signal is 0.0151 KA relative to UGCAUGU.
As to B8, the binding signal is 0.00903 KA relative to UGCAUGU.
Take B9: the binding signal was 0.00663 KA relative to UGCAUGU.
The result for B10 reads 0.0138 KA relative to UGCAUGU; that for B11, 0.0183 KA relative to UGCAUGU; that for B12, 0.00788 KA relative to UGCAUGU.
Take B13: the binding signal is 0.0151 KA relative to UGCAUGU.
Take B14: the binding signal is 0.0024 KA relative to UGCAUGU.
Turning to B15, the binding signal is 0.0163 KA relative to UGCAUGU.
B16: the binding signal was 0.0126 KA relative to UGCAUGU.
In the case of B17, the binding signal is 0.00913 KA relative to UGCAUGU.
On to B18, for which the binding signal is 0.00504 KA relative to UGCAUGU.
B19: the binding signal is 0.0198 KA relative to UGCAUGU.
For B20 the value was 0.000254 KA relative to UGCAUGU.
The result for B21 reads 0.0119 KA relative to UGCAUGU; that for B22, 0.00578 KA relative to UGCAUGU; that for B23, 0.00967 KA relative to UGCAUGU.
As for B24, the binding signal is 0.0157 KA relative to UGCAUGU.
For B25 the value was 0.002 KA relative to UGCAUGU; for B26, 0.00288 KA relative to UGCAUGU.
In the case of B27, the binding signal is 0.00125 KA relative to UGCAUGU.
For B28, the binding signal was 0.00433 KA relative to UGCAUGU.
Take B29: the binding signal was 0.0199 KA relative to UGCAUGU.
Consider B30, for which the binding signal was 0.00728 KA relative to UGCAUGU.
Regarding B31, the binding signal was 0.00569 KA relative to UGCAUGU.
